± gives the standard deviation of the averaged measurements. Laboratory Escherichia coli strains with one amino-acid change in an essential protein, pooled on minimal glucose agar with carbenicillin or gentamicin at twice the control MIC (plus kanamycin and chloramphenicol for the plasmids), 48 h. Fold change of barcode share against drug-free plates; higher = less susceptible. Active = above 20 in both replicates (the paper's putatively resistant). '<' = one read or none on drug, '>' = one read or none on a drug-free plate. Shares are relative, so most strains fall below 1 when a few take over. Listed are strains with at least 15 reads on both drug-free plates, and hits; most hits rest on fewer reference reads. Replicate rank correlation about 0.5. Edits are read from barcodes.
B1: suhB V116D (protein)
chain: MHPMLNIAVRAARKAGNLIAKNYETPDAVEASQKGSNDFVTNVDKAAEAVIIDTIRKSYPQHTIITEESGELEGTDQDVQWVIDPLDGTTNFIKRLPHFAVSIAVRIKGRTEVAVDYDPMRNELFTATRGQGAQLNGYRLRGSTARDLDGTILATGFPFKAKQYATTYINIVGKLFNECADFRRTGSAALDLAYVAAGRVDGFFEIGLRPWDFAAGELLVREAGGIVSDFTGGHNYMLTGNIVAGNPRVVKAMLANMRDELSDALKR
B2: suhB V40A (protein)
chain: MHPMLNIAVRAARKAGNLIAKNYETPDAVEASQKGSNDFATNVDKAAEAVIIDTIRKSYPQHTIITEESGELEGTDQDVQWVIDPLDGTTNFIKRLPHFAVSIAVRIKGRTEVAVVYDPMRNELFTATRGQGAQLNGYRLRGSTARDLDGTILATGFPFKAKQYATTYINIVGKLFNECADFRRTGSAALDLAYVAAGRVDGFFEIGLRPWDFAAGELLVREAGGIVSDFTGGHNYMLTGNIVAGNPRVVKAMLANMRDELSDALKR
B3: suhB V40Q (protein)
chain: MHPMLNIAVRAARKAGNLIAKNYETPDAVEASQKGSNDFQTNVDKAAEAVIIDTIRKSYPQHTIITEESGELEGTDQDVQWVIDPLDGTTNFIKRLPHFAVSIAVRIKGRTEVAVVYDPMRNELFTATRGQGAQLNGYRLRGSTARDLDGTILATGFPFKAKQYATTYINIVGKLFNECADFRRTGSAALDLAYVAAGRVDGFFEIGLRPWDFAAGELLVREAGGIVSDFTGGHNYMLTGNIVAGNPRVVKAMLANMRDELSDALKR
B4: suhB V40D (protein)
chain: MHPMLNIAVRAARKAGNLIAKNYETPDAVEASQKGSNDFDTNVDKAAEAVIIDTIRKSYPQHTIITEESGELEGTDQDVQWVIDPLDGTTNFIKRLPHFAVSIAVRIKGRTEVAVVYDPMRNELFTATRGQGAQLNGYRLRGSTARDLDGTILATGFPFKAKQYATTYINIVGKLFNECADFRRTGSAALDLAYVAAGRVDGFFEIGLRPWDFAAGELLVREAGGIVSDFTGGHNYMLTGNIVAGNPRVVKAMLANMRDELSDALKR
B5: accD V121Q (protein)
chain: MSWIERIKSNITPTRKASIPEGVWTKCDSCGQVLYRAELERNLEVCPKCDHHMRMTARNRLHSLLDEGSLVELGSELEPKDVLKFRDSKKYKDRLASAQKETGEKDALVVMKGTLYGMPVQAAAFEFAFMGGSMGSVVGARFVRAVEQALEDNCPLICFSASGGARMQEALMSLMQMAKTSAALAKMQERGLPYISVLTDPTMGGVSASFAMLGDLNIAEPKALIGFAGPRVIEQTVREKLPPGFQRSEFLIEKGAIDMIVRRPEMRLKLASILAKLMNLPAPNPEAPREGVVVPPVPDQEPEA
B6: suhB F230A (protein)
chain: MHPMLNIAVRAARKAGNLIAKNYETPDAVEASQKGSNDFVTNVDKAAEAVIIDTIRKSYPQHTIITEESGELEGTDQDVQWVIDPLDGTTNFIKRLPHFAVSIAVRIKGRTEVAVVYDPMRNELFTATRGQGAQLNGYRLRGSTARDLDGTILATGFPFKAKQYATTYINIVGKLFNECADFRRTGSAALDLAYVAAGRVDGFFEIGLRPWDFAAGELLVREAGGIVSDATGGHNYMLTGNIVAGNPRVVKAMLANMRDELSDALKR
B7: suhB F230D (protein)
chain: MHPMLNIAVRAARKAGNLIAKNYETPDAVEASQKGSNDFVTNVDKAAEAVIIDTIRKSYPQHTIITEESGELEGTDQDVQWVIDPLDGTTNFIKRLPHFAVSIAVRIKGRTEVAVVYDPMRNELFTATRGQGAQLNGYRLRGSTARDLDGTILATGFPFKAKQYATTYINIVGKLFNECADFRRTGSAALDLAYVAAGRVDGFFEIGLRPWDFAAGELLVREAGGIVSDDTGGHNYMLTGNIVAGNPRVVKAMLANMRDELSDALKR
B8: thiL I9A (protein)
chain: MACGEFSLAARYFDRVRSSRLDVELGIGDDCALLNIPEKQTLAISTDTLVAGNHFLPDIDPADLAYKALAVNLSDLAAMGADPAWLTLALTLPDVDEAWLESFSDSLFDLLNYYDMQLIGGDTTRGPLSMTLGIHGFVPMGRALTRSGAKPGDWIYVTGTPGDSAAGLAILQNRLQVADAKDADYLIKRHLRPSPRILQGQALRDLANSAIDLSDGLISDLGHIVKASDCGARIDLALLPFSDALSRHVEPEQALRWALSGGEDYELCFTVPELNRGALDVALGHLGVPFTCIGQMTADIEGLCFIRDGEPVTLDWKGYDHFATP
B9: thiL I9W (protein)
chain: MACGEFSLWARYFDRVRSSRLDVELGIGDDCALLNIPEKQTLAISTDTLVAGNHFLPDIDPADLAYKALAVNLSDLAAMGADPAWLTLALTLPDVDEAWLESFSDSLFDLLNYYDMQLIGGDTTRGPLSMTLGIHGFVPMGRALTRSGAKPGDWIYVTGTPGDSAAGLAILQNRLQVADAKDADYLIKRHLRPSPRILQGQALRDLANSAIDLSDGLISDLGHIVKASDCGARIDLALLPFSDALSRHVEPEQALRWALSGGEDYELCFTVPELNRGALDVALGHLGVPFTCIGQMTADIEGLCFIRDGEPVTLDWKGYDHFATP
B10: thiL I9Q (protein)
chain: MACGEFSLQARYFDRVRSSRLDVELGIGDDCALLNIPEKQTLAISTDTLVAGNHFLPDIDPADLAYKALAVNLSDLAAMGADPAWLTLALTLPDVDEAWLESFSDSLFDLLNYYDMQLIGGDTTRGPLSMTLGIHGFVPMGRALTRSGAKPGDWIYVTGTPGDSAAGLAILQNRLQVADAKDADYLIKRHLRPSPRILQGQALRDLANSAIDLSDGLISDLGHIVKASDCGARIDLALLPFSDALSRHVEPEQALRWALSGGEDYELCFTVPELNRGALDVALGHLGVPFTCIGQMTADIEGLCFIRDGEPVTLDWKGYDHFATP
B11: thiL F13W (protein)
chain: MACGEFSLIARYWDRVRSSRLDVELGIGDDCALLNIPEKQTLAISTDTLVAGNHFLPDIDPADLAYKALAVNLSDLAAMGADPAWLTLALTLPDVDEAWLESFSDSLFDLLNYYDMQLIGGDTTRGPLSMTLGIHGFVPMGRALTRSGAKPGDWIYVTGTPGDSAAGLAILQNRLQVADAKDADYLIKRHLRPSPRILQGQALRDLANSAIDLSDGLISDLGHIVKASDCGARIDLALLPFSDALSRHVEPEQALRWALSGGEDYELCFTVPELNRGALDVALGHLGVPFTCIGQMTADIEGLCFIRDGEPVTLDWKGYDHFATP
B12: thiL F13Q (protein)
chain: MACGEFSLIARYQDRVRSSRLDVELGIGDDCALLNIPEKQTLAISTDTLVAGNHFLPDIDPADLAYKALAVNLSDLAAMGADPAWLTLALTLPDVDEAWLESFSDSLFDLLNYYDMQLIGGDTTRGPLSMTLGIHGFVPMGRALTRSGAKPGDWIYVTGTPGDSAAGLAILQNRLQVADAKDADYLIKRHLRPSPRILQGQALRDLANSAIDLSDGLISDLGHIVKASDCGARIDLALLPFSDALSRHVEPEQALRWALSGGEDYELCFTVPELNRGALDVALGHLGVPFTCIGQMTADIEGLCFIRDGEPVTLDWKGYDHFATP
B13: thiL V95A (protein)
chain: MACGEFSLIARYFDRVRSSRLDVELGIGDDCALLNIPEKQTLAISTDTLVAGNHFLPDIDPADLAYKALAVNLSDLAAMGADPAWLTLALTLPDADEAWLESFSDSLFDLLNYYDMQLIGGDTTRGPLSMTLGIHGFVPMGRALTRSGAKPGDWIYVTGTPGDSAAGLAILQNRLQVADAKDADYLIKRHLRPSPRILQGQALRDLANSAIDLSDGLISDLGHIVKASDCGARIDLALLPFSDALSRHVEPEQALRWALSGGEDYELCFTVPELNRGALDVALGHLGVPFTCIGQMTADIEGLCFIRDGEPVTLDWKGYDHFATP
B14: thiL V95W (protein)
chain: MACGEFSLIARYFDRVRSSRLDVELGIGDDCALLNIPEKQTLAISTDTLVAGNHFLPDIDPADLAYKALAVNLSDLAAMGADPAWLTLALTLPDWDEAWLESFSDSLFDLLNYYDMQLIGGDTTRGPLSMTLGIHGFVPMGRALTRSGAKPGDWIYVTGTPGDSAAGLAILQNRLQVADAKDADYLIKRHLRPSPRILQGQALRDLANSAIDLSDGLISDLGHIVKASDCGARIDLALLPFSDALSRHVEPEQALRWALSGGEDYELCFTVPELNRGALDVALGHLGVPFTCIGQMTADIEGLCFIRDGEPVTLDWKGYDHFATP
B15: thiL V95Q (protein)
chain: MACGEFSLIARYFDRVRSSRLDVELGIGDDCALLNIPEKQTLAISTDTLVAGNHFLPDIDPADLAYKALAVNLSDLAAMGADPAWLTLALTLPDQDEAWLESFSDSLFDLLNYYDMQLIGGDTTRGPLSMTLGIHGFVPMGRALTRSGAKPGDWIYVTGTPGDSAAGLAILQNRLQVADAKDADYLIKRHLRPSPRILQGQALRDLANSAIDLSDGLISDLGHIVKASDCGARIDLALLPFSDALSRHVEPEQALRWALSGGEDYELCFTVPELNRGALDVALGHLGVPFTCIGQMTADIEGLCFIRDGEPVTLDWKGYDHFATP

Biological target: Escherichia coli (laboratory strain)
Assay: barcode share on antibiotic plates over drug-free plates; higher = less susceptible
Conditions: antibiotic: carbenicillin; 2× MIC (3.1 µg/mL)
Experimental: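 A pool of E. coli strains, each edited to carry one amino-acid change in an essential protein, was grown for 48 h on minimal glucose agar with or without antibiotic; strain barcodes were sequenced; mean of two replicates.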

| Protein | fold change of barcode share |
| --- | --- |
| B1 | 0.341 ± 0.11 |
| B2 | 0.182 ± 0.17 |
| B3 | 0.168 ± 0.0022 |
| B4 | 0.272 ± 0.18 |
| B5 | 0.562 ± 0.018 |
| B6 | 0.179 ± 0.076 |
| B7 | 0.297 ± 0.02 |
| B8 | 0.277 ± 0.061 |
| B9 | 0.302 ± 0.11 |
| B10 | 0.437 ± 0.1 |
| B11 | 0.477 ± 0.041 |
| B12 | 0.394 ± 0.015 |
| B13 | 0.434 ± 0.0056 |
| B14 | 0.679 ± 0.15 |
| B15 | 0.731 ± 0.31 |

Same assay, conditions: antibiotic: gentamicin; 2× MIC (MIC 0.45 µg/mL)

| Protein | fold change of barcode share |
| --- | --- |
| B1 | 0.0153 ± 0.018 |
| B2 | < 0.0178 |
| B4 | 0.029 ± 0.019 |
| B5 | 0.00435 ± 0.003 |
| B6 | < 0.0108 |
| B7 | < 0.0055 |
| B8 | < 0.00835 |
| B9 | 0.0086 ± 0.0042 |
| B10 | < 0.0058 |
| B11 | 0.00583 ± 0.0028 |
| B12 | 0.00836 ± 0.0066 |
| B13 | 0.01849 ± 6.6e-05 |
| B14 | 0.00773 ± 0.0024 |
| B15 | 0.0875 ± 0.11 |
